Assay results from the supplement of paper PMC11417369.
The other results are listed elsewhere or left out.

Each sequence was assayed on PF3D7_0420300 AP2 domain 1 (GST-tagged) (assay: gcPBM binding intensity (ln(normalized median fluorescence intensity)); higher = stronger DNA binding).
Procedure, shortened: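 Plasmodium falciparum DNA-binding domains carrying a GST tag were expressed in E. coli and applied for 1 h, at about 25 μg on average, to an Agilent 4 × 180k array. The array held primer-extended double-stranded 36-bp intergenic genomic probes together with negative controls, and binding took place in 1× PBS with 1% milk, 0.2 mg/ml BSA, 0.5% salmon testes DNA and 0.03% Triton X-100. An Alexa488 anti-GST antibody detected bound protein, and the array was scanned at 488 nm. Binding intensity is taken as the highest Masliner-normalised natural-log median intensity across replicate spots of either probe orientation.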

In order of rising “gcPBM binding intensity (ln)” value:
1. GTTCAAATTATTATGTGTACTAAAGAATATTTTAAA [XGTACX_site3166]  8.85
2. AAAATAATTTTATAAGTGCAAAATAGCTTATTTATA  8.91
3. TTTATAAATTCTCTTTTTAAAAAATATTTTTATACT [CACACA_negctrl_site427]  8.93
4. TTATATAACATTATTTGTACATATAAAATATGGATG [XGTACX_site8526]  9
5. GTTTTCATCCAAAAAAGTACATTTATTTTTATACGA [XGTACX_site1039]  9.03
6. TATTTTATTTGTATATTCATTTGTATAATATAAATA [TGCATGCA_negctrl_site267]  9.16
7. AAAAAAAATTTATGGGGTACATATTATAATATTATA [XGTACX_site3395]  9.17
8. ATATTTTTTACAAATTGTACATTTTTACAATTATTA [XGTACX_site7496]  9.18
9. TGTATAAACTTTACGTGTACATGAATAATCTATAAT [XGTACX_site3801]  9.18
10. AATTTATTTTTTTGATGTACATACAATTTATCACAA [XGTACX_site5936]  9.19
11. AAATGTAATATAAATAGTACATATTAAATAAAATTA [XGTACX_site6917]  9.21
12. GGAAAATCTTTATAATGTACATTATGATTATATAAT [XGTACX_site6256]  9.23
13. ATGTGCACATATAAAAGTACACGCACATATATATAT [XGTACX_site1238]  9.24
14. ACTTTAGAAATAGAGGTGCTATTTTTATTACCACAC  9.27
15. TTGTACAAAAATAATGCACACTATATCAAGTTTTTT [CACACA_site5898]  9.28
16. TATATATGTGTATAGAGTACACGTTTTTTTTAATAT [XGTACX_site3128]  9.29
17. TATTACATTATATAAACATGCAAAACTATATATTAT [TGCATGCA_site601]  9.3
18. TTGATGTTGGTAGGATGTACGGTACCGGTAGTATTT [XGTACX_site6642]  9.34
19. TATGTGCATATAAACTCACACATTGTATATTACATG [CACACA_site6106]  9.35
20. TTTATTAAAATATTCTCACACACCAAAATATGTATG [CACACA_site932]  9.37
21. ATTTTAGAATTTAATACACACAAAAAAAAAAAATTA [CACACA_site3704]  9.39
22. ATTCTTTATATGCATACACACCTAATATAGGGACCT [CACACA_site6830]  9.42
23. AAAAATTTATTTAAAAGTACATAAAATAAAGGTGGA [XGTACX_site7591]  9.42
24. TATACGTATTACAGAGTGCAATAAACAGTATATATT  9.43
25. TGCACAAAGTTATGCACACACCTAAAATTAATTTTT [CACACA_site7385]  9.45
26. ATGTATGAATTACATAGTACATAAGAAAAAATGAAG [XGTACX_site5942]  9.46
27. ATTATATATAATATAGTGCATGTAAAAAATAAAACA  9.48
28. AAAAACCTGAACTGTGCATGTCATACTTTTACTTTT [TGCATGCA_site73]  9.48
29. TTATAATATGTATACACACACATATATAGATATATA [CACACA_site7159]  9.49
30. GTAGTGGTTGAATATACACACATATATAAATAAATA [CACACA_site7282]  9.5
31. TAAATACATCTATGCACACAAAAAAATATATATTTT [CACACA_site5027]  9.5
32. TAATCATTTTAGCTTACACACAAAATTTTGTTATAA [CACACA_site2939]  9.51
33. TCTATTTTTTATATGGTGCATTGTTCTTATTAATAT [GTGCAC_site9392]  9.52
34. AAAAAAAAAAAAAAAACACACATAAAAATATAATAA [CACACA_site3855]  9.53
35. ATATATGTAGATATATGTACATATATAGGTAGATAT [XGTACX_site7589]  9.53
36. AAGGAAAAGTAAAGAAGTACTGTACCGCCAAAAAAA [XGTACX_site2607]  9.54
37. AAAATGGAACTAGGAATAATATAAGAAGATAAAAGG [XGTACX_negctrl_site347]  9.55
38. AAGAATATTATAAACACACACTTTATAAAGAATTAT [CACACA_site4241]  9.63
39. GTACATAGGTATAGCACACACAAATGTAGGTATTTT [CACACA_site4049]  9.65
40. ATAAAATAACACAACGTTGACAAATTTGGATGACTC [XGTACX_negctrl_site324]  9.67
41. AAAATAATAAAAAGGGGTACAAAGAAACAAATATAA [XGTACX_site296]  9.73
42. CTTTATTTTTTATACACACACAATATGTATTTATAT [CACACA_site5879]  9.81
43. TATATAATTGTCTTCACACACACATATATATATATA [CACACA_site2744]  9.94
44. AAATATAAAGTGCACACACACAAAAAAAGAAAAAAA [CACACA_site6452]  9.97
